The list shows a part of the results.
Tested on: HepG2
Assay: cytotoxicity call (relative viability < 0.9)
Settings: 10 µM

SMILES | cytotoxicity call
CCCN(C)C[C@H]1OCCCC[C@H](C)Oc2ccc(NS(=O)(=O)c3cn(C)cn3)cc2C(=O)N([C@H](C)CO)C[C@H]1C | inactive
C[C@H](CO)N1C[C@H](C)[C@@H](CN(C)Cc2ccc(C(=O)O)cc2)Oc2ccc(NC(=O)C3CC3)cc2C1=O | inactive
CO[C@H]1CN(C)C(=O)c2cc(NS(C)(=O)=O)ccc2OC[C@H](C)N(C(=O)C2CCOCC2)C[C@H]1C | inactive
CCCC#Cc1ccc2c(c1)O[C@@H](CN(C)S(=O)(=O)c1cccc(F)c1)[C@H](C)CN([C@@H](C)CO)S2(=O)=O | inactive
O=C(C[C@H]1C[C@@H]2c3cc(NC(=O)c4ccc5c(c4)OCO5)ccc3O[C@@H]2[C@@H](CO)O1)NCCc1ccccc1 | inactive
COc1ccc(S(=O)(=O)N2C[C@@H](O)COC[C@@H]3O[C@H](CC(=O)NCCCN(C)C)CC[C@H]32)cc1 | inactive
C[C@@H]1CN([C@H](C)CO)C(=O)Cc2cc(NS(C)(=O)=O)ccc2O[C@@H]1CN(C)Cc1ccc(C(=O)O)cc1 | inactive
O=C1OCC=C[C@H]2O[C@@]34C=CCN(CCN5CCOCC5)C(=O)[C@H]3N(CCO)C(=O)[C@@H]4[C@@H]12 | inactive
C[C@@H]1CN([C@H](C)CO)C(=O)c2cccc(NC(=O)CCCCCC(=O)Nc3ccccc3N)c2O[C@@H]1CN(C)Cc1ccccc1 | inactive
OC[C@H]1CC[C@@H]2O[C@H](CCc3ccc(C#CCc4ccccc4)cc3)[C@H](n3cc(-c4ccccc4)nn3)C[C@@H]2O1 | inactive
Cc1ccc(OCCN)c(Br)c1 | inactive
COc1ccc(S(=O)(=O)N(C)C[C@H]2Oc3c(NC(=O)c4ccncc4)cccc3C(=O)N([C@@H](C)CO)C[C@@H]2C)cc1 | inactive
Cc1noc(C)c1S(=O)(=O)Nc1cccc2c1O[C@@H](CN(C)Cc1ccc(C(=O)O)cc1)[C@@H](C)CN([C@H](C)CO)C2=O | inactive
Cc1noc(C)c1NC(=O)N(C)C[C@@H]1OCCCC[C@@H](C)Oc2ccc(NC(=O)NC3CCCCC3)cc2C(=O)N([C@H](C)CO)C[C@H]1C | inactive
CCOC(=O)c1[nH]c(C)c(C(=O)C2=C(O)C(=O)N(CCN3CCOCC3)[C@H]2c2cccc(OC)c2OC)c1C | inactive
COc1ccc2c3c(n(c2c1)C)[C@@H](CO)N(C[C@]13CCN(CC1)C(=O)C1CCOCC1)C(=O)C1CCOCC1 | inactive

SMILES | cytotoxicity call
CCCNC(=O)N1C[C@H]2[C@@H](c3ccccc31)[C@@H](CO)N2C(=O)CN1CCOCC1 | inactive
C[C@@H]1CN([C@@H](C)CO)C(=O)c2cc(NC(=O)NC3CCCCC3)ccc2O[C@@H](C)CCCCO[C@H]1CN(C)Cc1ccc(C(F)(F)F)cc1 | active
CCCNC(=O)N1C[C@H]2[C@@H](c3ccccc31)[C@H](CO)N2C(=O)CN1CCOCC1 | inactive
OC[C@@H]1CN(CCN2CCOCC2)C[C@H](n2cnc3c(NC4CCC4)ncnc32)O1 | inactive
O=C1CO[C@H]2CN(S(=O)(=O)c3ccccc3)C[C@@H]2N1 | inactive
CN1CCN(C(=O)C[C@@H]2C=C[C@H](NC(=O)c3ccc4c(c3)OCO4)[C@@H](CO)O2)CC1 | inactive
COc1ccc(NC(=O)N(C)C[C@@H]2Oc3c(NC(=O)C4CCOCC4)cccc3C(=O)N([C@H](C)CO)C[C@H]2C)cc1 | inactive
C[C@H]1CN([C@@H](C)CO)C(=O)c2cc(NC(=O)Nc3ccc(F)cc3)ccc2O[C@H]1CN(C)C(=O)Nc1ccc(C(F)(F)F)cc1 | inactive
C[C@H](CO)N1C[C@H](C)[C@H](CN(C)S(=O)(=O)c2cn(C)cn2)Oc2ccc(NC(=O)NC3CCCCC3)cc2C1=O | inactive
C[C@@H]1CCCCO[C@H](CN(C)Cc2ccncc2)[C@@H](C)CN([C@H](C)CO)C(=O)c2cc(NC(=O)Nc3ccccc3)ccc2O1 | inactive
C[C@@H]1CCCCO[C@@H](CN(C)C(=O)C2CCCCC2)[C@H](C)CN([C@@H](C)CO)C(=O)c2cc(NC(=O)CCCCCC(=O)Nc3ccccc3N)ccc2O1 | inactive
Cc1noc(C)c1NC(=O)N(C)C[C@@H]1Oc2cc(C#CCN(C)C)ccc2S(=O)(=O)N([C@@H](C)CO)C[C@@H]1C | inactive
CC(C)(O)c1cn(-c2nonc2N)nn1 | inactive
CO[C@H]1CN(C)C(=O)c2cc(NC(=O)Nc3cccc(F)c3)ccc2OC[C@H](C)N(C(=O)Nc2c(C)noc2C)C[C@@H]1C | inactive
C[C@H]1CN([C@@H](C)CO)C(=O)c2cccc(NC(=O)Nc3ccc(C(F)(F)F)cc3)c2O[C@@H]1CN(C)Cc1ccc(C(=O)O)cc1 | inactive
